Some of the results follow. Values were computed here from the reads of four pooled replicates and scatter widely.
Target: T1, Pho4 (S. cerevisiae) (UniProt P07270)
T1 sequence: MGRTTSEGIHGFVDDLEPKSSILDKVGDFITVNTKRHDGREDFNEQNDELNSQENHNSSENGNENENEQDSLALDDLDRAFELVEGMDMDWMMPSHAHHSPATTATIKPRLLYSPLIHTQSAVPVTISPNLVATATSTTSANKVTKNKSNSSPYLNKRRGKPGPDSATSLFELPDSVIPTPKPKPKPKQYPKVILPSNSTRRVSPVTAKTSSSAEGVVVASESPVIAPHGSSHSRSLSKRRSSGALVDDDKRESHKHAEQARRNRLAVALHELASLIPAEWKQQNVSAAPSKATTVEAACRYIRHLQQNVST
Assay: relative binding free energy (BET-seq); higher = weaker binding
Settings: reference: library average

Relative binding free energy, 0.29 kcal/mol:
GATTTCACGTGGTAAG, TGGTTCACGTGGAAAA, CTTTTCACGTGTCTGT

Relative binding free energy, -0.04 kcal/mol:
TGGGGCACGTGGTATA, TGTTGCACGTGTTCTG, GGTGGCACGTGCTGGG, ATGTACACGTGGCATT

Relative binding free energy, -0.27 kcal/mol:
TTGGCCACGTGGGGAA, TCGTGCACGTGGTATA

Relative binding free energy, -0.09 kcal/mol:
CGGGGCACGTGGTTCA, GTAGGCACGTGGAGGC, ATTGACACGTGGCTTG

Relative binding free energy, 0.36 kcal/mol:
TTATTCACGTGTCGGT

Relative binding free energy, -0.02 kcal/mol:
CGTGGCACGTGTAGAG, GGAGGCACGTGTAGAA, AATTCCACGTGGGGGA, TATTGCACGTGGATTC, GCTGGCACGTGTTGTT

Relative binding free energy, 0.13 kcal/mol:
TTAGTCACGTGCTGGG, ATTTGCACGTGATGGA, GTTGTCACGTGCTCAG

Relative binding free energy, 0.43 kcal/mol:
GTTTTCACGTGAAGCT

Relative binding free energy, 0.12 kcal/mol:
ATTTGCACGTGAACGT, TTTAGCACGTGATTTA, ATTGGCACGTGATTTG, TTTCTCACGTGTCGGT, TATTCCACGTGGTGGC, GGAGTCACGTGGTATG

Relative binding free energy, -0.06 kcal/mol:
TTAGGCACGTGCTGAA, CGCGACACGTGGGCGG, GCTCGCACGTGGGGTC

Relative binding free energy, 0.41 kcal/mol:
GGGTTCACGTGGTTAC

Relative binding free energy, 0.05 kcal/mol:
TCTGTCACGTGCGGGG, GGCAGCACGTGTAGTT, TCGTTCACGTGGGCTT, ATAGGCACGTGAATGG, GTTAACACGTGGGAGA, GATTGCACGTGGCGTA

Relative binding free energy, 0.06 kcal/mol:
ATAGACACGTGACGGG, GTATGCACGTGGAAAG

Relative binding free energy, -0.17 kcal/mol:
GTAGGCACGTGCACGG

Relative binding free energy, 0.26 kcal/mol:
TTAGGCACGTGAGTAT, GGCTTCACGTGGGAAT, GGGTTCACGTGCAGAG

Relative binding free energy, -0.03 kcal/mol:
ATACGCACGTGATGTT, AGTAGCACGTGCAGTG, GGGTACACGTGGTAGA, ATATCCACGTGTATGG, TATAACACGTGTGTCT

Relative binding free energy, -0.21 kcal/mol:
GAGCGCACGTGGGGTG, GTGGCCACGTGGCGTA

Relative binding free energy, 0.32 kcal/mol:
TAATACACGTGAGTTA

Relative binding free energy, -0.08 kcal/mol:
TAATGCACGTGCTTTG, GGCAGCACGTGGTGGC

Relative binding free energy, 0.19 kcal/mol:
GGAGACACGTGAGGTA, GTTGTCACGTGTCTGC, TTCGTCACGTGTTGTC

Relative binding free energy, -0.15 kcal/mol:
GCGGGCACGTGGTCAT, AGTGTCACGTGGCAGG, TGGGCCACGTGTTTAG, TAATGCACGTGGCGGT, GGGAGCACGTGGGTCT, TAAAGCACGTGGTGGC, ATTGGCACGTGGTTAG

Relative binding free energy, 0.17 kcal/mol:
GGTTGCACGTGTTTCG, ATGTACACGTGCTGTC, GGTCTCACGTGGTATA, TTTCTCACGTGTAAGG

Relative binding free energy, 0.31 kcal/mol:
TTTATCACGTGAAGTA, GTCTTCACGTGGGAAT, TGTTTCACGTGGAGAA

Relative binding free energy, -0.26 kcal/mol:
AGAGCCACGTGGGTGG

Relative binding free energy, 0.25 kcal/mol:
TTGTTCACGTGCGGGG, GAGGTCACGTGCGAGT, ATTGTCACGTGAGGCA, TTGTGCACGTGAAATG

Relative binding free energy, 0.08 kcal/mol:
GCGTGCACGTGTGGAT, GGGGACACGTGGAGCT, GAAGACACGTGTGTTA, TGTTGCACGTGGATTT, AGTGGCACGTGATCTA

Relative binding free energy, 0.35 kcal/mol:
TGTGTCACGTGAGAAA, CGTTTCACGTGAACGT, AAGATCACGTGATTGG

Relative binding free energy, -0.19 kcal/mol:
ATAACCACGTGGGTGG, AGGGGCACGTGGGGCG, ATTGGCACGTGCCGTG, CTTAACACGTGTTTGG, CGTGGCACGTGGCTGT

Relative binding free energy, 0.09 kcal/mol:
ATTGGCACGTGAATAA, ATTTCCACGTGGTTGG, TGAGTCACGTGGGAAC, AAGATCACGTGGGTTT, AGGGTCACGTGGCGTC

Relative binding free energy, 0.2 kcal/mol:
GTACTCACGTGCGGGG, GTGTACACGTGGAAGG, GTGGACACGTGAAGTA

Relative binding free energy, 0.37 kcal/mol:
CTGTTCACGTGGAGCG, TGCTGCACGTGAATTT

Relative binding free energy, -0.1 kcal/mol:
GATGGCACGTGTTCGA, CTATACACGTGTTGTG, GGAGGCACGTGTTAGA

Relative binding free energy, -0.05 kcal/mol:
TGCTACACGTGGTGTG, ATGAGCACGTGTATGG, TTCAGCACGTGGTGGA, TGTGCCACGTGGCAGG, ATTTACACGTGGGCTG

Relative binding free energy, -0.16 kcal/mol:
TGAAACACGTGCGTGG, TTGCGCACGTGTATGT

Relative binding free energy, 0.16 kcal/mol:
TGGTTCACGTGGAGCG, AGATACACGTGATTGG, TAGGGCACGTGTAATA

Relative binding free energy, -0.24 kcal/mol:
TTAGGCACGTGGGGTG, ATGAGCACGTGGGACG, GCGGGCACGTGGGTCT

Relative binding free energy, 0 kcal/mol:
TTAGGCACGTGATTTA, TTATGCACGTGCCTTG, TAAGACACGTGTATGT, TTGGACACGTGGCGGT

Relative binding free energy, 0.4 kcal/mol:
GGGTTCACGTGAGTGC

Relative binding free energy, -0.14 kcal/mol:
GGGGACACGTGGGTTG, TTGAACACGTGGTTCG

Relative binding free energy, -0.2 kcal/mol:
TAGCGCACGTGTAGTG

Relative binding free energy, 0.21 kcal/mol:
TGTGCCACGTGATAAG, TACATCACGTGTTGTT, GGGAACACGTGATCGG

Relative binding free energy, -0.18 kcal/mol:
TGTAACACGTGCTTTG, GTTCGCACGTGGGGGC

Relative binding free energy, 0.24 kcal/mol:
AGTTTCACGTGGTATT

Relative binding free energy, -0.23 kcal/mol:
GCGAGCACGTGGGGTT

Relative binding free energy, 0.33 kcal/mol:
TTTTTCACGTGTTGAT, CATCTCACGTGAGGGT, AAAGCCACGTGAGTGG

Relative binding free energy, 0.38 kcal/mol:
TATTTCACGTGATAAG

Relative binding free energy, -0.07 kcal/mol:
ATAAGCACGTGTAGTG, GCGTGCACGTGCTGGG, TAAAGCACGTGGTGAT, CAGGGCACGTGCGATG, AGATGCACGTGGAGGG, CGACGCACGTGTGTGG, GGTGCCACGTGGTGTA, AATCGCACGTGTTGTG

Relative binding free energy, -0.11 kcal/mol:
TCTGGCACGTGCGGGG, TGGTCCACGTGGGGTG, CGTTCCACGTGGGTGT, GTTAGCACGTGCTGGG, AAGGTCACGTGGCCGG, GTTTGCACGTGCTGCT

Relative binding free energy, 0.02 kcal/mol:
TGTATCACGTGGTCGC, AAAGTCACGTGTAAGG

Relative binding free energy, 0.03 kcal/mol:
TGGCACACGTGGCTGT, TCTGACACGTGGTTTG, GACGGCACGTGGTGGT, ACCATCACGTGGGGGG, TGGTGCACGTGTATGA

Relative binding free energy, -0.22 kcal/mol:
GGAGGCACGTGGGCGG, GCATGCACGTGGGGTG

Relative binding free energy, -0.28 kcal/mol:
TGTGCCACGTGCGGGT

Relative binding free energy, 0.11 kcal/mol:
GGTGCCACGTGTTTTT, TTGGTCACGTGAGGAC, CTGGACACGTGGTTAG, CGGGTCACGTGGTAGG

Relative binding free energy, -0.12 kcal/mol:
GGAGGCACGTGTACGG, AGTTCCACGTGGGTTA, ATTAGCACGTGTGCGG, GTAGACACGTGGGGAT

Relative binding free energy, 0.27 kcal/mol:
GAGATCACGTGGGCGT, CTACTCACGTGGAGGT, TAGTGCACGTGAAATT, CTGTTCACGTGGTGGT, GTTATCACGTGGATCA, CATTTCACGTGTGGCA

Relative binding free energy, 0.18 kcal/mol:
AGATTCACGTGTGCAT, ATGATCACGTGTTGGG, AGTATCACGTGGATGT, TTTTCCACGTGAGTGT, GTTAACACGTGATTAG, ATATTCACGTGTAGAG, ACATTCACGTGGTGGG

Relative binding free energy, 0.22 kcal/mol:
GGACTCACGTGAGTGT, ATACTCACGTGGTGAG, GTTGACACGTGTTTTT, TTAGGCACGTGAGCGC

Relative binding free energy, 0.23 kcal/mol:
GGTATCACGTGAGGCA

Relative binding free energy, 0.15 kcal/mol:
GTAGTCACGTGTGTAG, GGGTACACGTGTCGTG, AGTGCCACGTGAATGT, CGGGACACGTGTAGGC, TGAGGCACGTGAGTGA

Relative binding free energy, 0.04 kcal/mol:
TCTGACACGTGATGTT, GTGGCCACGTGTAAGT, TTTGACACGTGTGAAG, TGACTCACGTGGTTTG, GCTTGCACGTGGTTGG, TCCGTCACGTGTTGTG

Relative binding free energy, 0.48 kcal/mol:
GATTCCACGTGAGGTG

Relative binding free energy, 0.1 kcal/mol:
GTGAGCACGTGGAAGT, TTGTACACGTGCAAGG, TATATCACGTGGAGTA, CTTTACACGTGGCTGG

Relative binding free energy, -0.13 kcal/mol:
GAATGCACGTGGGCTG, ATTGGCACGTGGCAGT, AGCAGCACGTGTTGAG

Relative binding free energy, 0.07 kcal/mol:
GGGGACACGTGCGGGT, CTTTGCACGTGTATTG, TTTCGCACGTGACTGG, TATTACACGTGCGTTA, GTGCACACGTGTAGGT

Relative binding free energy, -0.01 kcal/mol:
ACTAGCACGTGTGTTT, AATGGCACGTGCGAGT, TCGAGCACGTGGAGTT, AAGAGCACGTGTTAAG, ACTATCACGTGGGTTA, AGGGGCACGTGTTGGC, GTCGACACGTGCGGGG, ATAAACACGTGTGGAG

Relative binding free energy, 0.01 kcal/mol:
TGATCCACGTGTTGGT, GTAGTCACGTGGGGCT, TCGATCACGTGTTTTG, GTTAGCACGTGCGGAG, TAGGACACGTGGTTGT, TTTTCCACGTGTAGTA, ACGGTCACGTGTTTGG, TGGGACACGTGCAGCG

Relative binding free energy, 0.14 kcal/mol:
GGTTACACGTGTGCTG, TCTTACACGTGTATTT, TGGGTCACGTGTGTAG, AATTTCACGTGGGTAC, TGTTACACGTGTGCGT, GGGTACACGTGTTCTT
